Reference: the supplement of paper PMC11876631
Residue numbers refer to the chain shown, from its start. Names may count otherwise. ± gives the standard deviation of the averaged measurements. Laboratory Escherichia coli strains with one amino-acid change in an essential protein, pooled on minimal glucose agar with carbenicillin or gentamicin at twice the control MIC (plus kanamycin and chloramphenicol for the plasmids), 48 h. Fold change of barcode share against drug-free plates; higher = less susceptible. Active = above 20 in both replicates (the paper's putatively resistant). '<' = one read or none on drug, '>' = one read or none on a drug-free plate. Shares are relative, so most strains fall below 1 when a few take over. Listed are strains with at least 15 reads on both drug-free plates, and hits; most hits rest on fewer reference reads. Replicate rank correlation about 0.5. Edits are read from barcodes.

B1: nrdA L227D (protein)
chain: MNQNLLVTKRDGSTERINLDKIHRVLDWAAEGLHNVSISQVELRSHIQFYDGIKTSDIHETIIKAAADLISRDAPDYQYLAARLAIFHLRKKAYGQFEPPALYDHVVKMVEMGKYDNHLLEDYTEEEFKQMDTFIDHDRDMTFSYAAVKQLEGKYLVQNRVTGEIYESAQFLYILVAACLFSNYPRETRLQYVKRFYDAVSTFKISLPTPIMSGVRTPTRQFSSCVDIECGDSLDSINATSSAIVKYVSQRAGIGINAGRIRALGSPIRGGEAFHTGCIPFYKHFQTAVKSCSQGGVRGGAATLFYPMWHLEVESLLVLKNNRGVEGNRVRHMDYGVQINKLMYTRLLKGEDITLFSPSDVPGLYDAFFADQEEFERLYTKYEKDDSIRKQRVKAVELFSLMMQERASTGRIYIQNVDHCNTHSPFDPAIAPVRQSNLCLEIALPTKPLNDVNDENGEIALCTLSAFNLGAINNLDELEELAILAVRALDALLDYQDYPIPAAKRGAMGRRTLGIGVINFAYYLAKHGKRYSDGSANNLTHKTFEAIQYYLLKASNELAKEQGACPWFNETTYAKGILPIDTYKKDLDTIANEPLHYDWEALRESIKTHGLRNSTLSALMPSETSSQISNATNGIEPPRGYVSIKASKDGILRQVVPDYEHLHDAYELLWEMPGNDGYLQLVGIMQKFIDQSISANTNYDPSRFPSGKVPMQQLLKDLLTAYKFGVKTLYYQNTRDGAEDAQDDLVPSIQDDGCESGACKI
B2: obgE I332A (protein)
chain: MKFVDEASILVVAGDGGNGCVSFRREKYIPKGGPDGGDGGDGGDVWMEADENLNTLIDYRFEKSFRAERGQNGASRDCTGKRGKDVTIKVPVGTRVIDQGTGETMGDMTKHGQRLLVAKGGWHGLGNTRFKSSVNRTPRQKTNGTPGDKRELLLELMLLADVGMLGMPNAGKSTFIRAVSAAKPKVADYPFTTLVPSLGVVRMDNEKSFVVADIPGLIEGAAEGAGLGIRFLKHLERCRVLLHLIDIDPIDGTDPVENARIIISELEKYSQDLATKPRWLVFNKIDLLDKVEAEEKAKAIAEALGWEDKYYLISAASGLGVKDLCWDVMTFAIENPVVQAEEAKQPEKVEFMWDDYHRQQLEEIAEEDDEDWDDDWDEDDEEGVEFIYKR
B3: obgE I332W (protein)
chain: B2 chain with A332W
B4: obgE I332Q (protein)
chain: B2 chain with A332Q
B5: obgE I332P (protein)
chain: B2 chain with A332P
B6: obgE I176P (protein)
chain: B2 chain with I176P, A332I
B7: obgE I332D (protein)
chain: B2 chain with A332D
B8: obgE I176A (protein)
chain: B2 chain with I176A, A332I
B9: obgE I176Q (protein)
chain: B2 chain with I176Q, A332I
B10: obgE I176D (protein)
chain: B2 chain with I176D, A332I
B11: aspS F394A (protein)
chain: MRTEYCGQLRLSHVGQQVTLCGWVNRRRDLGSLIFIDMRDREGIVQVFFDPDRADALKLASELRNEFCIQVTGTVRARDEKNINRDMATGEIEVLASSLTIINRADVLPLDSNHVNTEEARLKYRYLDLRRPEMAQRLKTRAKITSLVRRFMDDHGFLDIETPMLTKATPEGARDYLVPSRVHKGKFYALPQSPQLFKQLLMMSGFDRYYQIVKCFRDEDLRADRQPEFTQIDVETSFMTAPQVREVMEALVRHLWLEVKGVDLGDFPVMTFAEAERRYGSDKPDLRNPMELTDVADLLKSVEFAVFAGPANDPKGRVAALRVPGGASLTRKQIDEYGNFVKIYGAKGLAYIKVNERAKGLEGINSPVAKFLNAEIIEDILDRTAAQDGDMIFAGADNKKIVADAMGALRLKVGKDLGLTDESKWAPLWVIDFPMFEDDGEGGLTAMHHPFTSPKDMTAAELKAAPENAVANAYDMVINGYEVGGGSVRIHNGDMQQTVFGILGINEEEQREKFGFLLDALKYGTPPHAGLAFGLDRLTMLLTGTDNIRDVIAFPKTTAAACLMTEAPSFANPTALAELSIQVVKKAENN

Target: Escherichia coli (laboratory strain)
Test: barcode share on antibiotic plates over drug-free plates; higher = less susceptible
Procedure: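 A pool of E. coli strains, each edited to carry one amino-acid change in an essential protein, was grown for 48 h on minimal glucose agar with or without antibiotic; strain barcodes were sequenced; mean of two replicates.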

[1] = antibiotic: carbenicillin, 2× MIC (3.1 µg/mL)
[2] = antibiotic: gentamicin, 2× MIC (MIC 0.45 µg/mL)

Protein	fold change of barcode share [1]	fold change of barcode share [2]
B1	0.103 ± 0.0023	0.0234 ± 0.029
B2	0.299 ± 0.058	< 0.00924
B3	0.295 ± 0.061	< 0.00865
B4	0.563 ± 0.43	0.0126 ± 0.0081
B5	0.3743 ± 0.0027	0.0197 ± 0.019
B6	0.365 ± 0.064	0.00745 ± 0.005
B7	0.409 ± 0.4	0.0232 ± 0.0089
B8	0.365 ± 0.032	0.00961 ± 0.012
B9	0.366 ± 0.15	0.00495 ± 0.004
B10	0.386 ± 0.059	0.00614 ± 0.0036
B11	0.322 ± 0.11	0.0205 ± 0.011
